Source: article PMC12040169 (PLOS Biology, 2025)
The list shows a part of the results.

system: T1, C. trachomatis L2/434/Bu expressing GFP (CTL2-GFP); set-up: species or system HeLa; C. trachomatis total inclusion area by high-content imaging, normalised to DMSO; conditions: total inclusion area; 28.5 h, 10 µM; inhibitor
T1 construct: L2/434/Bu GFP intracellular growth in HeLa cells
Procedure, shortened: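 Post-fluorescence-read fixation, DNA staining with Hoechst and high-content imaging; GFP inclusion area and number per well, and nuclei counts, used as proxies for bacterial growth and host viability.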

Row | Structure (SMILES) | % of control remaining
1 | COc1cccc2c1cc(C(=O)NCc1cc(C3CC3)[nH]n1)n2C [CBK283282] | 115.176
2 | CCOc1cccc2cc(C(=O)N3CCN(Cc4ccccc4)CC3)c(=O)oc12 [CBK270259C] | 95.1742
3 | COc1cc(CN2CCN(c3ccccn3)CC2)cc(Br)c1O [CBK025770] | 76.6084
4 | Cc1ccc(S(=O)(=O)Nc2cccc3ccccc23)c([N+](=O)[O-])c1 [CBK267381] | 107.755
5 | COc1ccccc1C1C(C(=O)c2sc(C)nc2C)=C(O)C(=O)N1CCCN1CCOCC1 (stereo not drawn) [CBK266592] | 90.6947
6 | CCOC(=O)CN1CCN(c2nccnc2OCCN2CCOCC2)CC1 [CBK082897] | 18.3475
7 | COc1ccnc(N2CCN(C(=O)c3ccc(C)n3C)CC2)n1 [CBK305803] | 52.7352
8 | COCc1cn(C[C@H]2CC3CCN2C[C@@H]3C(=O)NC(C)C)nn1 (stereo partly drawn) [CBK288733] | 100.218
9 | CC(=O)c1ccc(-c2ccc(C(=O)N3CCN(C)CC3)c(N3CCOCC3)n2)s1 [CBK106181] | 105.211
10 | c1ccc2c(c1)OCC(c1nn3c(-c4ccncc4)nnc3s1)O2 (stereo not drawn) [CBK288560] | 62.2117
11 | O=C(c1nccc2ccccc12)N1CCc2ccccc21 [CBK200405] | 34.8159
12 | c1ncn(C2CCCCC2)c1C1CCCCC1 [CBK016758] | 73.0027
13 | CC(C)(C)NC(=O)C1C2CCC3(CC(=O)c4ccccc4O3)C21 (stereo not drawn) [CBK284821] | 114.875
14 | COc1ccc2[nH]cc(CCNC(=O)CCC(=O)O)c2c1 [CBK116605] | 110.698
15 | O=C(c1ccco1)N1CCN(c2ccc(/C=C/c3ccccc3)cn2)CC1 [CBK037701] | 53.5857
16 | Cc1cc(Br)ccc1C(=O)Nc1ccc2cc[nH]c2c1 [CBK160046] | 106.036
17 | CC(=O)Nc1ccc(S(=O)(=O)Nc2ccc(C(=O)N3CCN(C)CC3)cc2)cc1 [CBK050406] | 104.804
18 | COc1cc(C2C(C(=O)c3cccs3)=C(O)C(=O)N2Cc2cccnc2)cc(OC)c1OC (stereo not drawn) [CBK264874] | 108.656
19 | COC(=O)Nc1ccc(S(=O)(=O)Oc2ccc(C)cc2-n2nc3ccccc3n2)cc1 [CBK262183] | 83.8682
20 | COc1ccc2c(c1)nc1n2CCC1O (stereo not drawn) [CBK115449] | 90.9655
21 | Cc1cc(C)n(CC(=O)N2CCNC(=O)C2c2ccccc2Cl)n1 (stereo not drawn) [CBK306421] | 90.8566
22 | O=C(N/N=C\c1ccc(-c2ccc(Cl)c(Cl)c2)o1)C1COc2cc3ccccc3cc2O1 (stereo not drawn) [CBK262834] | 90.7944
23 | O=C(Nc1ccc2c(c1)OCO2)C1CCN(S(=O)(=O)c2ccc(Oc3ccccc3)cc2)CC1 [CBK269648] | 71.9638
24 | Cc1ccc2nc(-c3ccccc3)c(CC(=O)O)c(C(=O)O)c2c1 [CBK265128] | 101.913
25 | Cc1n[nH]cc1CN(C)c1cc([C@H]2C[C@@H](N)C2)nc(C2CC2)n1 [CBK307544] | 32.2914
26 | Nc1cccc(-c2cn([C@H]3C[C@@H](O)[C@@H](CO)O3)c(=O)[nH]c2=O)c1 [CBK201262] | 110.61

Row | Structure (SMILES) | % of control remaining
27 | c1coc(-c2ccc3c(c2)COC2(CCN(CCc4ccc5c(c4)OCO5)CC2)O3)c1 [CBK061057] | 99.1503
28 | CCOC(=O)N1CCC(NS(=O)(=O)c2cccc3cccnc23)CC1 [CBK045453] | 99.9941
29 | Nc1cc(=O)[nH]c(=O)n1CCc1c[nH]c2ccccc12 [CBK288190] | 90.1143
30 | O=S(=O)(c1ccccc1)c1ccc(N2CCNCC2)cc1 [CBK018452] | 119.467
31 | N#Cc1cccc(CSc2nnc(Nc3ccccc3)n2-c2ccccc2)c1 [CBK266040] | 94.8925
32 | CS(=O)(=O)NC1CCN(CCc2ccc(F)c(F)c2)C1 (stereo not drawn) [CBK305078] | 76.7332
33 | COc1ccc(-c2cncc(N(C)CCN(C)C)n2)cc1 [CBK037832] | 86.9578
34 | CCCn1c(C)cc2cc(NC(=O)C(C)n3ccnc3)ccc21 (stereo not drawn) [CBK281547] | 100.727
35 | Cc1c(Cl)cccc1S(=O)(=O)Nc1nc(-c2cccc([N+](=O)[O-])c2)cs1 [CBK000994] | 76.8753
36 | COc1ccc(CCNC(=O)N(CCC#N)C2CCCCC2)cc1 [CBK156375] | 77.8922
37 | COc1cc(NC(=O)CSc2ncnc3sc4c(c23)CCCC4)cc(OC)c1 [CBK267547] | 83.1664
38 | COc1ccccc1-c1nccnc1NCc1cccs1 [CBK088682] | 78.3203
39 | CCc1ncsc1C(=O)NC1CCCN(c2ccn(C)n2)C1=O (stereo not drawn) [CBK306498] | 82.2165
40 | COC(=O)CCc1ccc(S(=O)(=O)N2CCCN(Cc3cc(F)cc(F)c3)CC2)cc1 [CBK062990] | 114.852
41 | CN(C)CCn1c2c(c3ccccc31)CCCn1cnnc1-2 [CBK267712C] | 93.9788
42 | CCc1cn(C[C@H](NC(=O)c2ccco2)C(=O)O)c(=O)[nH]c1=O [CBK289670] | 106.21
43 | CC(C)NC(=O)CN1CCC(Oc2nccnc2OCc2ccc(Cl)c(Cl)c2)CC1 [CBK153791] | 83.6856
44 | C/C(=C\c1ccccc1)CN1CCC(C(=O)N2CCN(Cc3ccc4c(c3)OCO4)CC2)CC1 [CBK264327] | 100.112
45 | Cc1cc2c(cc1Cl)C(=O)CC1(CCNCC1)O2 [CBK282715] | 76.237
46 | COc1cc(OC)nc(CN2C(=O)C3(CC(=O)N(CCCN4C(=O)c5ccccc5C4=O)C3=O)c3cc(C)ccc32)n1 (stereo not drawn) [CBK075992] | 94.5167
47 | COc1cc(OC)nc(C(NC(=O)C2CCN(CCc3c[nH]c4ccccc34)CC2)c2ccccc2C)n1 (stereo not drawn) [CBK148101] | 69.0413
48 | Cn1c(=O)c(-c2ccccc2)nc2ccccc21 [CBK016192] | 94.4605
49 | Cc1cc(N2CCCC2)c(F)cc1CN1CCC(O)C(C)C1 (stereo not drawn) [CBK282963] | 104.326
50 | CN(C)CCCNC(=O)C1CCCCN1S(=O)(=O)c1ccc(C(C)(C)C)cc1 (stereo not drawn) [CBK200070] | 89.8642
51 | CS(=O)(=O)N(CC(=O)Nc1ccc2c(c1)OCO2)c1ccc(Oc2ccccc2)cc1 [CBK263989] | 112.036
52 | CC1CCCN(C(=O)c2cc(-c3ccccn3)n[nH]2)C1C (stereo not drawn) [CBK283146] | 96.8885

Row | Structure (SMILES) | % of control remaining
53 | COc1ccc(Oc2cc(Cl)nc(N)n2)cc1 [CBK261771] | 96.8789
54 | O=C(O)c1oc2ccccc2c1CN1CCN(c2ccccc2)CC1 [CBK286948] | 111.993
55 | Cc1ccc(-c2nn3c(C)nnc3s2)cc1NC(=O)c1ccc([N+](=O)[O-])o1 [CBK267247] | 77.1078
56 | Cc1ccc(NC(=O)c2cncc(-c3ccc(C(=O)N4CCOCC4)cc3)c2)c(O)c1 [CBK160208] | 101.074
57 | COc1ccc(F)cc1-c1cccc(CC2(C(=O)NCc3cccs3)CCOCC2)c1 [CBK285543] | 97.0775
58 | COc1cc(CNc2cc(-c3ccc(N4CCOCC4)cc3)ncn2)cc(OC)c1OC [CBK091174] | 135.93
59 | COc1cc2c(cc1OC)CN(C(=O)CSc1nc(-c3cccnc3)ccc1C#N)CC2 [CBK267464] | 102.701
60 | COc1ccc(Cl)cc1NC(=O)CC(C)(C)CC(=O)O [CBK001236] | 90.6263
61 | COC(=O)CNC(=O)c1nc(SC)ncc1Cl [CBK057651] | 98.5781
62 | Cn1c(=O)n(C)c2cc(CNc3ccc(N4CCOCC4)c(C(=O)O)c3)ccc21 [CBK269463] | 84.6536
63 | CC(Sc1nc2ccc(F)cc2c(=O)[nH]1)C(=O)N1CCOCC1 (stereo not drawn) [CBK305958] | 91.7971
64 | CC(C)NC(=O)NC[C@H]1C[C@@H]2CC[N@]1C[C@@H]2CN1CCN(c2ccccn2)CC1 [CBK289112] | 86.1286
65 | COC(=O)CN1N=C(C(C)(C)C)Cn2c(cc3sccc32)C1=O [CBK284177] | 80.2098
66 | COc1ccccc1NC(=O)c1c(NC(=O)c2cc([N+](=O)[O-])ccc2Cl)sc2c1CCCC2 [CBK263827] | 103.741
67 | CN(C)C(=O)COc1cccc(Nc2nc(Br)cn3ccnc23)c1 [CBK037989] | 154.889
68 | COc1ccc(-c2nc(O)cc(C(F)(F)F)n2)cc1 [CBK003515] | 104.67
69 | C=CCn1c(-c2sc(NC(=O)c3[nH]c4c(c3C)C(=O)CC(C)(C)C4)nc2C)n[nH]c1=S [CBK297757] | 102.32
70 | CCc1cc(C(=O)OC)c(NC(=O)CC2NCCNC2=O)s1 (stereo not drawn) [CBK266990] | 128.655
71 | CCn1c2cc(C)sc2c2cnn(CC(=O)N3CCCC3)c(=O)c21 [CBK284168] | 92.0664
72 | CC(C)C(=O)Nc1ccc(-c2ccccc2)c2ccccc12 [CBK083731] | 49.3196
73 | O=C(O)/C=N/NC(=O)c1ccco1 [CBK260923] | 94.8743
74 | O=S(=O)(c1ccc(F)cc1)N1CCCC1c1cccc(Cc2ccccc2)n1 (stereo not drawn) [CBK286231] | 85.3803
75 | CC(C)(C)OC(=O)N1CCCC(c2nc3ccccc3cc2N)C1 (stereo not drawn) [CBK284711] | 103.854
76 | CCCC/C=C/c1cnc(N)c(-c2ccc(C(=O)NCCO)cc2)n1 [CBK064141] | 118.189
77 | CS(=O)(=O)c1ccc(-c2c[nH]c([C@@H]3COCCN3Cc3ccccc3)n2)cc1 [CBK289300] | 105.832
78 | COc1ccc2nc(O)c(CN(c3ccccc3)S(=O)(=O)c3ccccc3)cc2c1 [CBK268093] | 101.784
